# The list shows a part of the results.
# B1: Gal 3 (Homo sapiens), P17931 (protein)
# chain: MADNFSLHDALSGSGNPNPQGWPGAWGNQPAGAGGYPGASYPGAYPGQAPPGAYPGQAPPGAYHGAPGAYPGAPAPGVYPGPPSGPGAYPSSGQPSAPGAYPATGPYGAPAGPLIVPYNLPLPGGVVPRMLITILGTVKPNANILDFQRGNDVAFHFNPRFNENNRRVIVCNTKLDNNWGREESQSVFPFESGKPFKIQVLVEPDHFKVAVNDAHLLQYNHRVKKLNEISKLGISGDIDLTSASYTMI
# How the values were obtained:
# Test in all cases: glycan array binding signal (z-score within array); higher = stronger binding
# Settings in all cases: glycan notation: IUPAC condensed, linker removed; mutation: R186S
# [1] = target: Fuc(a1-2)Gal
# Outline: (§1)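 Glycan array data came from 3228 arrays in the Consortium for Functional Glycomics database, and only arrays with an available protein sequence were kept. Glycan names were put into IUPAC-condensed notation, and columns mapping to the same glycan were averaged. The binding signal is a within-array Z-score, averaged across arrays of one protein sequence run at different concentrations or buffers and across linkers. A negative Z-score can be read as non-binding.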
# [2] = target: Fuc(a1-2)Gal(b1-3)GalNAc
# Outline: as §1
# [3] = target: Fuc(a1-2)Gal(b1-3)GalNAc(a1-3)[Fuc(a1-2)]Gal(b1-4)Glc
# Outline: as §1
# [4] = target: Fuc(a1-2)Gal(b1-3)GalNAc(a1-3)[Fuc(a1-2)]Gal(b1-4)GlcNAc
# Outline: as §1
# [5] = target: Fuc(a1-2)Gal(b1-3)GalNAc(b1-3)Gal
# Outline: as §1
# [6] = target: Fuc(a1-2)Gal(b1-3)GalNAc(b1-3)Gal(a1-4)Gal(b1-4)Glc
# Outline: as §1
# [7] = target: Fuc(a1-2)Gal(b1-3)GalNAc(b1-4)[Neu5Ac(a2-3)]Gal(b1-4)Glc
# Outline: as §1
# [8] = target: Fuc(a1-2)Gal(b1-3)GlcNAc
# Outline: as §1
# [9] = target: Fuc(a1-2)Gal(b1-3)GlcNAc(b1-2)Man(a1-3)[Fuc(a1-2)Gal(b1-3)GlcNAc(b1-2)Man(a1-6)]Man(b1-4)GlcNAc(b1-4)GlcNAc
# Outline: as §1
# [10] = target: Fuc(a1-2)Gal(b1-3)GlcNAc(b1-3)Gal(b1-4)Glc
# Outline: as §1
# [11] = target: Fuc(a1-2)Gal(b1-3)GlcNAc(b1-3)[Fuc(a1-3)[Gal(b1-4)]GlcNAc(b1-6)]Gal(b1-4)Glc
# Outline: as §1
# [12] = target: Fuc(a1-2)Gal(b1-3)[Fuc(a1-4)]GlcNAc
# Outline: as §1
# [13] = target: Fuc(a1-2)Gal(b1-3)[Fuc(a1-4)]GlcNAc(b1-2)Man(a1-3)[Fuc(a1-2)Gal(b1-3)[Fuc(a1-4)]GlcNAc(b1-2)Man(a1-6)]Man(b1-4)GlcNAc(b1-4)GlcNAc
# Outline: as §1
# [14] = target: Fuc(a1-2)Gal(b1-3)[Fuc(a1-4)]GlcNAc(b1-3)[Fuc(a1-3)[Gal(b1-4)]GlcNAc(b1-6)]Gal(b1-4)Glc
# Outline: as §1
# [15] = target: Fuc(a1-2)Gal(b1-3)[Fuc(a1-4)]GlcNAc(b1-3)[Gal(b1-4)GlcNAc(b1-6)]Gal(b1-4)Glc
# Outline: as §1
# [16] = target: Fuc(a1-2)Gal(b1-4)Glc
# Outline: as §1
# [17] = target: Fuc(a1-2)Gal(b1-4)Glc6S
# Outline: as §1
# [18] = target: Fuc(a1-2)Gal(b1-4)GlcNAc
# Outline: as §1
# [19] = target: Fuc(a1-2)Gal(b1-4)GlcNAc(b1-2)Man(a1-3)[Fuc(a1-2)Gal(b1-4)GlcNAc(b1-2)Man(a1-6)]Man(b1-4)GlcNAc(b1-4)GlcNAc
# Outline: as §1
# [20] = target: Fuc(a1-2)Gal(b1-4)GlcNAc(b1-3)Gal(b1-4)GlcNAc
# Outline: as §1
# [21] = target: Fuc(a1-2)Gal(b1-4)GlcNAc(b1-3)Gal(b1-4)GlcNAc(b1-3)Gal(b1-4)GlcNAc
# Outline: as §1
# [22] = target: Fuc(a1-2)Gal(b1-4)GlcNAc(b1-3)GalNAc
# Outline: as §1
# [23] = target: Fuc(a1-2)Gal(b1-4)GlcNAc6S
# Outline: as §1
# [24] = target: Fuc(a1-2)Gal(b1-4)[Fuc(a1-3)]GlcNAc
# Outline: as §1
# [25] = target: Fuc(a1-2)Gal(b1-4)[Fuc(a1-3)]GlcNAc(b1-2)Man(a1-3)[Fuc(a1-2)Gal(b1-4)[Fuc(a1-3)]GlcNAc(b1-2)Man(a1-6)]Man(b1-4)GlcNAc(b1-4)GlcNAc
# Outline: as §1
# [26] = target: Fuc(a1-2)Gal(b1-4)[Fuc(a1-3)]GlcNAc(b1-3)Gal(b1-4)[Fuc(a1-3)]GlcNAc
# Outline: as §1
# [27] = target: Fuc(a1-2)Gal(b1-4)[Fuc(a1-3)]GlcNAc(b1-3)Gal(b1-4)[Fuc(a1-3)]GlcNAc(b1-3)Gal(b1-4)[Fuc(a1-3)]GlcNAc
# Outline: as §1
# [28] = target: Fuc(a1-2)Gal6S(b1-4)Glc
# Outline: as §1
# [29] = target: Fuc(a1-2)Gal6S(b1-4)Glc6S
# Outline: as §1
# [30] = target: Fuc(a1-2)Gal6S(b1-4)GlcNAc
# Outline: as §1
# [31] = target: Fuc(a1-2)[Gal(a1-3)]Gal
# Outline: as §1
# [32] = target: Fuc(a1-2)[Gal(a1-3)]Gal(b1-3)GlcNAc
# Outline: as §1
# [33] = target: Fuc(a1-2)[Gal(a1-3)]Gal(b1-3)GlcNAc(b1-2)Man(a1-3)[Fuc(a1-2)[Gal(a1-3)]Gal(b1-3)GlcNAc(b1-2)Man(a1-6)]Man(b1-4)GlcNAc(b1-4)GlcNAc
# Outline: as §1
# [34] = target: Fuc(a1-2)[Gal(a1-3)]Gal(b1-4)Glc
# Outline: as §1
# [35] = target: Fuc(a1-2)[Gal(a1-3)]Gal(b1-4)GlcNAc
# Outline: as §1
# [36] = target: Fuc(a1-2)[Gal(a1-3)]Gal(b1-4)GlcNAc(b1-2)Man(a1-3)[Fuc(a1-2)[Gal(a1-3)]Gal(b1-4)GlcNAc(b1-2)Man(a1-6)]Man(b1-4)GlcNAc(b1-4)GlcNAc
# Outline: as §1
# [37] = target: Fuc(a1-2)[Gal(a1-3)]Gal(b1-4)[Fuc(a1-3)]GlcNAc
# Outline: as §1
# [38] = target: Fuc(a1-2)[Gal(a1-4)]Gal(b1-4)GlcNAc
# Outline: as §1
# [39] = target: Fuc(a1-2)[GalNAc(a1-3)]Gal
# Outline: as §1
# [40] = target: Fuc(a1-2)[GalNAc(a1-3)]Gal(b1-3)GalNAc(a1-3)[Fuc(a1-2)]Gal(b1-4)GlcNAc
# Outline: as §1
# [41] = target: Fuc(a1-2)[GalNAc(a1-3)]Gal(b1-3)GlcNAc
# Outline: as §1
# [42] = target: Fuc(a1-2)[GalNAc(a1-3)]Gal(b1-3)GlcNAc(b1-2)Man(a1-3)[Fuc(a1-2)[GalNAc(a1-3)]Gal(b1-3)GlcNAc(b1-2)Man(a1-6)]Man(b1-4)GlcNAc(b1-4)GlcNAc
# Outline: as §1
# [43] = target: Fuc(a1-2)[GalNAc(a1-3)]Gal(b1-4)Glc
# Outline: as §1
# [44] = target: Fuc(a1-2)[GalNAc(a1-3)]Gal(b1-4)GlcNAc
# Outline: as §1
# [45] = target: Fuc(a1-2)[GalNAc(a1-3)]Gal(b1-4)GlcNAc(b1-2)Man(a1-3)[Fuc(a1-2)[GalNAc(a1-3)]Gal(b1-4)GlcNAc(b1-2)Man(a1-6)]Man(b1-4)GlcNAc(b1-4)GlcNAc
# Outline: as §1
binder,measurement,setting,value
B1,glycan array binding signal (z-score),[1],-0.048
same,glycan array binding signal (z-score),[2],-0.05
same,glycan array binding signal (z-score),[3],-0.044
same,glycan array binding signal (z-score),[4],-0.036
same,glycan array binding signal (z-score),[5],-0.045
same,glycan array binding signal (z-score),[6],-0.052
same,glycan array binding signal (z-score),[7],-0.057
same,glycan array binding signal (z-score),[8],-0.06
same,glycan array binding signal (z-score),[9],-0.047
same,glycan array binding signal (z-score),[10],-0.052
same,glycan array binding signal (z-score),[11],-0.073
same,glycan array binding signal (z-score),[12],-0.026
same,glycan array binding signal (z-score),[13],-0.074
same,glycan array binding signal (z-score),[14],-0.061
same,glycan array binding signal (z-score),[15],-0.092
same,glycan array binding signal (z-score),[16],-0.07
same,glycan array binding signal (z-score),[17],-0.047
same,glycan array binding signal (z-score),[18],-0.054
same,glycan array binding signal (z-score),[19],-0.017
same,glycan array binding signal (z-score),[20],-0.065
same,glycan array binding signal (z-score),[21],0.012
same,glycan array binding signal (z-score),[22],-0.04
same,glycan array binding signal (z-score),[23],-0.046
same,glycan array binding signal (z-score),[24],-0.052
same,glycan array binding signal (z-score),[25],0.064
same,glycan array binding signal (z-score),[26],-0.047
same,glycan array binding signal (z-score),[27],-0.032
same,glycan array binding signal (z-score),[28],-0.049
same,glycan array binding signal (z-score),[29],-0.101
same,glycan array binding signal (z-score),[30],-0.055
same,glycan array binding signal (z-score),[31],-0.062
same,glycan array binding signal (z-score),[32],-0.059
same,glycan array binding signal (z-score),[33],19.8
same,glycan array binding signal (z-score),[34],-0.083
same,glycan array binding signal (z-score),[35],-0.051
same,glycan array binding signal (z-score),[36],0.619
same,glycan array binding signal (z-score),[37],0.013
same,glycan array binding signal (z-score),[38],-0.03
same,glycan array binding signal (z-score),[39],-0.006
same,glycan array binding signal (z-score),[40],-0.04
same,glycan array binding signal (z-score),[41],-0.009
same,glycan array binding signal (z-score),[42],0.242
same,glycan array binding signal (z-score),[43],-0.056
same,glycan array binding signal (z-score),[44],-0.022
same,glycan array binding signal (z-score),[45],-0.024

# — the supplement of paper PMC8728848
